Whole data set: some 33,000 sequences, median “E-score (-0.5 to 0.5)” near -0.032, cut for the highest 2% near 0.36. Some of the results follow.
Target: T1, Sko1 (UniProt Q02100)
T1 sequence: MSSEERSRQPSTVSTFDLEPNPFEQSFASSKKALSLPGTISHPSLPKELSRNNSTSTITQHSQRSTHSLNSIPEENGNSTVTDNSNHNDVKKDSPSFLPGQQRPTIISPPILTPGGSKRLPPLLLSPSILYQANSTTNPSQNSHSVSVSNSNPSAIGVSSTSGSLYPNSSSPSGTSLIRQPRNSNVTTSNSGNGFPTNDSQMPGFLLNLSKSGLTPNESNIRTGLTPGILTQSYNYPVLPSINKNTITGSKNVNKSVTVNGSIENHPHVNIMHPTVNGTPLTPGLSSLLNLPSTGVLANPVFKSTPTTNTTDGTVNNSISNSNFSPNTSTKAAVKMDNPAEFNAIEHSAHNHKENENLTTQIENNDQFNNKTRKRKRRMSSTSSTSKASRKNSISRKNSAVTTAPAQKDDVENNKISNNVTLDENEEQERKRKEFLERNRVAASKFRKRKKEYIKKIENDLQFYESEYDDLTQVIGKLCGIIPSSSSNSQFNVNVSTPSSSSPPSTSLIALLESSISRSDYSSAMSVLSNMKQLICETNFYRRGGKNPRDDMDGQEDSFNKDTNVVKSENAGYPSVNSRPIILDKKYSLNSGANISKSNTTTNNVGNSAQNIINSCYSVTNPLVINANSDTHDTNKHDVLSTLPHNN
Assay: PBM E-score (8-mer binding enrichment) (E-score (-0.5 to 0.5)); higher = stronger / more preferred TF binding; most listed sequences are background and not binding sites
Conditions: protein concentration: 200 nM; construct: GST-full length
Method: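 Universal 'all 10-mer' protein binding microarrays (Agilent AMADID 015681) probed with GST-tagged S. cerevisiae TFs (full-length or DBD) made by in vitro transcription/translation (PURExpress), about 100-200 nM. Bound TF was detected with fluorescent anti-GST. Each ungapped 8-mer (which stands for itself and its reverse complement) is scored by the PBM enrichment score (E-score), a modified Wilcoxon-Mann-Whitney statistic from -0.5 to +0.5, computed with the Universal PBM Analysis Suite. Scale: above 0.35 generally sequence-specific binding.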

Sequence | PBM E-score
GCCTTGAA | -0.129
AATCCTAG | -0.0162
ATGCGATA | -0.0138
GCGGTTTA | -0.0812
ATGCGAGG | 0.0459
AAAACCCC | -0.331
TCTACACA | 0.0808
AAGTTCCA | -0.0591
ATAGTTTG | 0.0325
CAAGGGCC | -0.293
AGCCACGC | -0.0218
AAATTGCC | 0.102
TAAAGTTA | 0.331
GAGGCTCC | -0.187
CCGCGACC | -0.335
CCCGGTCG | -0.381
ATGGCTCC | -0.249
AAACGTTC | 0.12
AGCTAGAA | -0.048
AGCTGAGA | -0.0858
CAGCAACG | 0.204
GGACGACC | -0.288
AGTGCACG | 0.076
CGATTGCC | -0.0166
CGCCGCAA | 0.0119

Sequence | PBM E-score
ACTTGACT | -0.0842
CGCTCCTA | 0.027
CAATATGC | -0.111
AGGTTTTA | -0.121
ATCGCGTC | 0.295
AGCAAAAG | -0.114
CCTAGAAA | 0.00019
CTCGATAC | 0.203
AAGTGTAT | 0.0856
CCTATCAA | -0.119
CAGCGGCG | -0.192
CGCAGGAA | -0.144
TACTTAAA | 0.0436
AACGCTGA | 0.0912
TGTAAAAA | -0.0197
CAGGATGA | -0.0146
ATGCGTTC | 0.149
AACTAGCT | 0.0319
GAACGGCC | -0.314
ATCGGAGA | -0.203
AGTGCTAG | -0.209
AAACAGGG | -0.262
AAGTCCTA | 0.0174
ACCCCGAA | -0.0339
ACGCTTGC | -0.0935

Sequence | PBM E-score
AAAGACGC | -0.0197
GTGAACAA | 0.173
AATCTGTC | -0.00887
ACGATACA | 0.128
ACTACCCC | -0.311
TATCTCCA | -0.122
CTATACAC | -0.107
CCTGCCAA | -0.265
CTACTTGC | 0.0717
AGAGGACG | -0.0401
GGGTGGGA | -0.137
AGAAGGCG | -0.279
CTGGATCC | -0.226
GAACTCTC | -0.189
AATACGGT | 0.121
GATCCTTA | 0.0168
CACCAAAC | 0.144
ACACGCAT | 0.219
ATTACTTG | 0.137
ATGCGCTG | -0.0588
CCCCCCAA | -0.25
GAGGAACA | 0.0293
CCCGTGGA | -0.274
CTGTGACC | -0.22
GCGCCTAC | -0.139

Sequence | PBM E-score
CCGCCGTA | -0.282
AACCAGGA | -0.158
TAGCAAAA | 0.145
GTGACCAC | -0.13
CTACCATA | -0.12
CCTAGACC | -0.0487
AAAAGCTC | 0.0185
CGTGTAAA | 0.211
CGCCACGC | -0.0376
CTATAGAG | -0.222
CCTTGGTC | -0.23
AAATTCGT | 0.339
AACTCTAT | -0.186
TCCCTGAA | 0.012
CTAGTCTA | -0.172
AATCTTTA | 0.184
CCCGGTAA | -0.206
ACTACTAA | 0.0432
ACCAGTTG | -0.0516
CAGACAAC | -0.0568
ATGTAACC | 0.101
CCTACTGA | -0.0932
ACACGGAG | -0.13
CTCTTTCC | -0.279
ACTCGGTG | -0.166

Sequence | PBM E-score
AAACTTGG | -0.0696
ATAGCCTC | -0.17
TGTCAACA | 0.152
GCCGGATA | -0.0275
GGGTTTCA | -0.138
GGTCCCGA | -0.278
CGCGCTAC | -0.0053
AGCGCCTA | -0.108
CAGCTTTA | 0.153
CGGGTGTC | -0.174
ACTAGCCA | -0.0674
AAGACTCC | -0.19
AACGTCCC | -0.0499
TAAGCCCA | -0.0558
GAAGTACA | 0.123
CACGCTAC | 0.00308
AAAGGAGC | -0.21
CCAGCTAC | -0.21
CGATCGCC | -0.0229
GAACCTCA | -0.069
GGGTCGGA | -0.118
ACTGGTGG | -0.227
AAGGGTCC | -0.3
CTATTACA | 0.164
GTGGACAA | -0.108

Sequence | PBM E-score
CGAGTGTC | -0.0686
ATCGCGCC | -0.077
GGAGTAAA | 0.236
AACAGCTT | -0.157
GGTTAGGA | -0.24
CGGAGCGA | 0.0702
AACCATAT | 0.119
CAAGTGGC | -0.0933
GCCAAGAA | 0.0422
TCTCAAAA | 0.154
CGGCTCCC | -0.235
CGCGCTTC | 0.0143
ATAAGCTG | -0.146
CACCTGAC | -0.0244
ATTCGGGG | 0.00111
AGACTCAT | 0.183
TAGACATA | 0.155
ACTCAGAG | -0.228
ACGAACCT | -0.146
ATTCGGAA | 0.0857
CGCACAAA | 0.139
AGGGTACT | -0.236
ATCCAGCG | -0.0882
CTAGTATA | 0.0687
GCACCGTA | -0.0484

Sequence | PBM E-score
GCCTTACC | -0.223
AGTTCCGG | -0.347
AACTACAA | -0.0602
AATGATGT | 0.427
GAAGCCTC | -0.181
TGAGTCCA | 0.0345
GGTGCGGA | 0.00084
ACAACTAC | 0.0968
GTAGTAAA | 0.152
GGGGCCTA | -0.353
CTATCAAG | -0.167
GTCTTCAC | 0.0843
GTCTTCCA | -0.182
ACATAATG | 0.295
ACGATAAT | 0.255
ATAATTAC | 0.376
GCACGTAA | 0.459
ATCCGCAG | -0.0766
CGCTATAG | -0.00022
AAGGACAG | -0.235
GTTAGGTA | 0.273
ATATCGTA | 0.315
